Test results from the supplement of paper PMC11417369.
This is one part of the list.

What follows are sequences tested on PF3D7_0420300 AP2 domain 1 (GST-tagged) (assay: gcPBM binding intensity (ln(normalized median fluorescence intensity)); higher = stronger DNA binding).
Summary of the method: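 For binding intensity, the highest Masliner-normalised natural-log median intensity across replicate spots of either probe orientation was taken. Protein bound to the array was stained with Alexa488 anti-GST antibody and scanned at 488 nm. The protein, GST-tagged P. falciparum DNA-binding domains from E. coli at about 25 μg on average, had been applied for 1 h to an Agilent 4 × 180k array of primer-extended double-stranded 36-bp intergenic genomic probes and negative controls.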

Row | Sequence | gcPBM binding intensity (ln)
1 | ATGGTACATACATACACACACACAAAAAAAAAAAAA [CACACA_site1578] | 9.95
2 | GTTCAATTTTTAGGAAGTACAAAAAAAAAAAAGAAA [XGTACX_site7286] | 8.99
3 | CAAACCTATATACAAACATGCAATCCACATATTGGT [TGCATGCA_site756] | 9.51
4 | TATATTAGTGTTGACACACACAAAAAAAAAAAAAAA [CACACA_site1396] | 9.22
5 | TATATTTGTATTGTTTGTACTTATATGAATTTATAT [XGTACX_site4228] | 9.46
6 | GACATTGATACCAGTAGTACCTATAGATGTTTGTTT [XGTACX_site5736] | 9.55
7 | TTATGGAATAATCACGTACACACAAGAAAAAAAAAA [CACACA_site526] | 9.75
8 | TTATAGAAAATGGAATAGAATGGAATGGAAGAAATA [CACACA_negctrl_site1086] | 9.48
9 | ATTATATATAAGAAGAGTACTGAATATGTGCAATAT [XGTACX_site4471] | 9.55
10 | TATATACACCCACATACACACAAATAAAAAAACACC [CACACA_site3414] | 9.98
11 | AAATAATGTTTGAATTGTACACATATTTGTGTTTCT [XGTACX_site4603] | 9.53
12 | ATGTTGCACAGTGGAAGAATTAAAAATAAATAAATA [XGTACX_negctrl_site581] | 9.03
13 | GTGGAACGTATATTTTCACACACTCTCAAAAGTACA [CACACA_site8722] | 9.28
14 | GTGGAACATATGAACTCACACACATTTTCACTTAAA [CACACA_site3683] | 9.48
15 | ATGAACATATCAATTCTCAAAATAGGATGAGAGCAT [CACACA_negctrl_site230] | 9.26
16 | AATTTTTGTATTTTTAGTACTTAATTTCAAAATAAC [XGTACX_site4234] | 8.98
17 | AATATTATAAATGTCACACATATATTCAAATATATA [CACACA_site4736] | 9.14
18 | TTTGTATATTATTTTAGTACATAACATTGAAGATAT [XGTACX_site6680] | 9.03
19 | ATATAAGGATTAATATGTACATATATATATATATTT [XGTACX_site1390] | 9.27

Row | Sequence | gcPBM binding intensity (ln)
20 | TATTTTGAAACTAAAAGACATAGAGAAAACAAAAAA [CACACA_negctrl_site1306] | 9.25
21 | TAATAAATACAAAAATGTACACACATATATATATTT [XGTACX_site7430] | 9.51
22 | TATATATATATTATCACACACTCACGTTTGACAAAA [CACACA_site689] | 9.32
23 | TTATTTATTTATTCATGTACGTGTATTTTTTAAAAA [XGTACX_site7915] | 9.16
24 | ATTGGGTACAAATACACACACATATATATATTAAGA [CACACA_site5330] | 9.92
25 | AGTGTCATATTAACACGTACATAATTATTGTAGAGA [XGTACX_site568] | 9.15
26 | GTATTTTTACAAATTTGTACATATATATGAATATAC [XGTACX_site6717] | 9.35
27 | GTATATAAATATATATATATATATATATCTATATTT [CACACA_negctrl_site871] | 9.16
28 | AAAGAAAAATTAACATGTACAAAAATTACTTGTTCA [XGTACX_site6725] | 9.21
29 | TCTGAAACAAGAAAAAGTACACAAATTACAAAACTA [XGTACX_site7641] | 9.44
30 | AAAAAAAATTCACACTGTACAAAAGCATAAATAAAC [XGTACX_site5408] | 9.75
31 | ATATTTACCTTTGTATGTACATATATAAAATATATC [XGTACX_site6367] | 9.37
32 | TTTTGTAAAAAGAAAAATTAGAATATATCGTATATA [XGTACX_negctrl_site617] | 8.8
33 | TTTTCCATAAGAATTACACACAGAAAGGATAAGTAT [CACACA_site105] | 9.72
34 | AAACAGCATGGTATACCTATAAAATATATATACTAA [GTGCAC_negctrl_site39] | 9.29
35 | CTTATATTAATTATTACACACATATTTATAAATGCA [CACACA_site6501] | 9.43
36 | TATTACATACAATATTGTACATATCATATTTTGAAT [XGTACX_site2191] | 9.24
37 | ACGGAAAAAGAAAAGGTGCATATGGACACAATATAT | 9.66
38 | ATTATTTGTTTAAATTCACACACGTATATATATTTA [CACACA_site3050] | 9.6

Row | Sequence | gcPBM binding intensity (ln)
39 | ACATGTAAATGGAAAAGTACTAATAACTTGTATTGG [XGTACX_site5181] | 9.36
40 | ATAGAAATATTATATTGTACGAACAGTTATTAACAA [XGTACX_site2137] | 9.3
41 | TTATTTTAATATAAAATACACACTACTATTATAAAT [CACACA_site1470] | 9.26
42 | TAATTATTAAAACATTGTACATTATTATAAACAATT [XGTACX_site4489] | 9.04
43 | ATATATAAATATATTACACACTTTTTCTTTTTTTTT [CACACA_site7332] | 9.38
44 | TTTTTTTTTTTTTGATGTACATAAATTAAGAATTAT [XGTACX_site7789] | 8.84
45 | AATATATCTTTTTACGGCAACCATATTTTTCCCATT [CACACA_negctrl_site963] | 9.5
46 | TTTTTTTTAGTATGAACACACATATATATTATAAAA [CACACA_site2935] | 9.14
47 | TATTATGTTATATATTGTACATGTTTATTGAAACAA [XGTACX_site5605] | 9.15
48 | TTTATATGTGAAAAAAGTACAAGGAAAAAATTAAAC [XGTACX_site7269] | 9.55
49 | TATTAACAAAATATAGCACACATAAATATATATTTA [CACACA_site8005] | 9.47
50 | ATTATCCATGCATTTACACACACACTAAAAAAAATT [CACACA_site7848] | 9.92
51 | ATGTATATATATTTGTGTACATATTTAGGAAATAAA [XGTACX_site2904] | 9.18
52 | AATTAAATTTATATGAATGTCAATTATATTGTTATA [XGTACX_negctrl_site261] | 9.11
53 | TTGAATTAAAAACATACATGCATATATATATATATA [TGCATGCA_site319] | 8.99
54 | TTATAAAATGGGCAAACACACACAAAAAAAAGATAT [CACACA_site8476] | 10
55 | AATAAATTACTATGTACACACATAAGAGTATAAATA [CACACA_site6940] | 9.52
56 | AAAAAGTTACATGGTGGTACTCAAATAAAATATTCT [XGTACX_site5993] | 9.28
